# Experimental data as given in the supplement of paper PMC8728848.
# The list shows a part of the results.
# B1: Siglec-E (Mus musculus), Q91Y57 (protein)
# chain: MLLLLLLLLLWGIKGVEGQNPQEVFTLNVERKVVVQEGLCVLVPCNFSYLKKRLTDWTDSDPVHGFWYREGTDRRKDSIVATNNPIRKAVKETRNRFFLLGDPWRNDCSLNIREIRKKDAGLYFFRLERGKTKYNYMWDKMTLVVTALTNTPQILLPETLEAGHPSNLTCSVPWDCGWTAPPIFSWTGTSVSFLSTNTTGSSVLTITPQPQDHGTNLTCQVTLPGTNVSTRMTTRLNVSYAPKNLTVTIYQGADSVSTILKNGSSLPISEGQSLRLICSTDSYPPANLSWSWDNLTLCPSKLSKPGLLELFPVHLKHGGVYTCQAQHALGSQHISLSLSPQSSATLSEMMMGTFVGSGVTALLFLSVCILLLAVRSYRRKPARPAVVAPHPDALKVSVSQNPLVESQADDSSEPLPSILEAAPSSTEEEIHYATLSFHEMKPMNLWGQQDTTTEYSEIKFPQRTAWP
# What was measured:
# Experiment in all cases: glycan array binding signal (z-score within array); higher = stronger binding
# Settings in all cases: glycan notation: IUPAC condensed, linker removed
# [1] = target: GlcNAc(b1-2)[GlcNAc(b1-4)]Man(a1-3)[GlcNAc(b1-4)][GlcNAc(b1-2)Man(a1-6)]Man(b1-4)GlcNAc(b1-4)GlcNAc
# How it was run: (§1)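 Glycan array data were curated from 3228 arrays in the Consortium for Functional Glycomics database and kept only where the protein sequence was available. Glycan names were converted to IUPAC-condensed notation, and columns mapping to the same glycan were averaged. The binding signal is a within-array Z-score, averaged across arrays of the same protein sequence at different concentrations or buffers and across linkers. Negative Z-scores can be read as non-binding.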
# [2] = target: GlcNAc(b1-2)[GlcNAc(b1-4)]Man(a1-3)[GlcNAc(b1-4)][GlcNAc(b1-2)[GlcNAc(b1-6)]Man(a1-6)]Man(b1-4)GlcNAc(b1-4)GlcNAc
# How it was run: as §1
# [3] = target: GlcNAc(b1-2)[GlcNAc(b1-4)]Man(a1-3)[GlcNAc(b1-4)][GlcNAc(b1-2)[GlcNAc(b1-6)]Man(a1-6)]Man(b1-4)GlcNAc(b1-4)[Fuc(a1-6)]GlcNAc
# How it was run: as §1
# [4] = target: GlcNAc(b1-2)[GlcNAc(b1-6)]Man(a1-6)[GlcNAc(b1-2)Man(a1-3)]Man(b1-4)GlcNAc(b1-4)GlcNAc
# How it was run: as §1
# [5] = target: GlcNAc(b1-2)[GlcNAc(b1-6)]Man(a1-6)[GlcNAc(b1-2)Man(a1-3)]Man(b1-4)GlcNAc(b1-4)[Fuc(a1-6)]GlcNAc
# How it was run: as §1
# [6] = target: GlcNAc(b1-2)[GlcNAc(b1-6)]Man(a1-6)[GlcNAc(b1-4)][GlcNAc(b1-2)Man(a1-3)]Man(b1-4)GlcNAc(b1-4)GlcNAc
# How it was run: as §1
# [7] = target: GlcNAc(b1-3)Fuc
# How it was run: as §1
# [8] = target: GlcNAc(b1-3)Gal
# How it was run: as §1
# [9] = target: GlcNAc(b1-3)Gal(b1-3)GalNAc
# How it was run: as §1
# [10] = target: GlcNAc(b1-3)Gal(b1-4)Glc
# How it was run: as §1
# [11] = target: GlcNAc(b1-3)Gal(b1-4)GlcNAc
# How it was run: as §1
# [12] = target: GlcNAc(b1-3)Gal(b1-4)GlcNAc(b1-2)Man(a1-3)[GlcNAc(b1-3)Gal(b1-4)GlcNAc(b1-2)Man(a1-6)]Man(b1-4)GlcNAc(b1-4)GlcNAc
# How it was run: as §1
# [13] = target: GlcNAc(b1-3)Gal(b1-4)GlcNAc(b1-2)Man(a1-3)[GlcNAc(b1-3)Gal(b1-4)GlcNAc(b1-2)Man(a1-6)]Man(b1-4)GlcNAc(b1-4)[Fuc(a1-6)]GlcNAc
# How it was run: as §1
# [14] = target: GlcNAc(b1-3)Gal(b1-4)GlcNAc(b1-2)[GlcNAc(b1-3)Gal(b1-4)GlcNAc(b1-6)]Man(a1-6)[GlcNAc(b1-3)Gal(b1-4)GlcNAc(b1-2)Man(a1-3)]Man(b1-4)GlcNAc(b1-4)GlcNAc
# How it was run: as §1
# [15] = target: GlcNAc(b1-3)Gal(b1-4)GlcNAc(b1-3)Gal(b1-4)GlcNAc
# How it was run: as §1
# [16] = target: GlcNAc(b1-3)Gal(b1-4)GlcNAc(b1-3)Gal(b1-4)GlcNAc(b1-2)Man(a1-3)[GlcNAc(b1-3)Gal(b1-4)GlcNAc(b1-3)Gal(b1-4)GlcNAc(b1-2)Man(a1-6)]Man(b1-4)GlcNAc(b1-4)GlcNAc
# How it was run: as §1
# [17] = target: GlcNAc(b1-3)Gal(b1-4)GlcNAc(b1-3)Gal(b1-4)GlcNAc(b1-2)Man(a1-3)[GlcNAc(b1-3)Gal(b1-4)GlcNAc(b1-3)Gal(b1-4)GlcNAc(b1-2)Man(a1-6)]Man(b1-4)GlcNAc(b1-4)[Fuc(a1-6)]GlcNAc
# How it was run: as §1
# [18] = target: GlcNAc(b1-3)Gal(b1-4)GlcNAc(b1-3)Gal(b1-4)GlcNAc(b1-2)[GlcNAc(b1-3)Gal(b1-4)GlcNAc(b1-3)Gal(b1-4)GlcNAc(b1-6)]Man(a1-6)[GlcNAc(b1-3)Gal(b1-4)GlcNAc(b1-3)Gal(b1-4)GlcNAc(b1-2)Man(a1-3)]Man(b1-4)GlcNAc(b1-4)[Fuc(a1-6)]GlcNAc
# How it was run: as §1
# [19] = target: GlcNAc(b1-3)Gal(b1-4)GlcNAc(b1-3)Gal(b1-4)GlcNAc(b1-3)Gal(b1-4)GlcNAc(b1-2)Man(a1-3)[GlcNAc(b1-3)Gal(b1-4)GlcNAc(b1-3)Gal(b1-4)GlcNAc(b1-3)Gal(b1-4)GlcNAc(b1-2)Man(a1-6)]Man(b1-4)GlcNAc(b1-4)GlcNAc
# How it was run: as §1
# [20] = target: GlcNAc(b1-3)Gal(b1-4)GlcNAc(b1-3)Gal(b1-4)GlcNAc(b1-3)Gal(b1-4)GlcNAc(b1-2)Man(a1-3)[GlcNAc(b1-3)Gal(b1-4)GlcNAc(b1-3)Gal(b1-4)GlcNAc(b1-3)Gal(b1-4)GlcNAc(b1-2)Man(a1-6)]Man(b1-4)GlcNAc(b1-4)[Fuc(a1-6)]GlcNAc
# How it was run: as §1
# [21] = target: GlcNAc(b1-3)Gal(b1-4)GlcNAc(b1-3)Gal(b1-4)GlcNAc(b1-3)Gal(b1-4)GlcNAc(b1-2)[GlcNAc(b1-3)Gal(b1-4)GlcNAc(b1-3)Gal(b1-4)GlcNAc(b1-3)Gal(b1-4)GlcNAc(b1-6)]Man(a1-6)[GlcNAc(b1-3)Gal(b1-4)GlcNAc(b1-3)Gal(b1-4)GlcNAc(b1-3)Gal(b1-4)GlcNAc(b1-2)Man(a1-3)]Man(b1-4)GlcNAc(b1-4)[Fuc(a1-6)]GlcNAc
# How it was run: as §1
# [22] = target: GlcNAc(b1-3)Gal(b1-4)GlcNAc(b1-3)Gal(b1-4)GlcNAc(b1-3)Gal(b1-4)GlcNAc(b1-3)Gal(b1-4)GlcNAc(b1-2)Man(a1-3)[GlcNAc(b1-3)Gal(b1-4)GlcNAc(b1-3)Gal(b1-4)GlcNAc(b1-3)Gal(b1-4)GlcNAc(b1-3)Gal(b1-4)GlcNAc(b1-2)Man(a1-6)]Man(b1-4)GlcNAc(b1-4)GlcNAc
# How it was run: as §1
# [23] = target: GlcNAc(b1-3)Gal(b1-4)GlcNAc(b1-3)Gal(b1-4)GlcNAc(b1-3)Gal(b1-4)GlcNAc(b1-3)Gal(b1-4)GlcNAc(b1-2)Man(a1-3)[GlcNAc(b1-3)Gal(b1-4)GlcNAc(b1-3)Gal(b1-4)GlcNAc(b1-3)Gal(b1-4)GlcNAc(b1-3)Gal(b1-4)GlcNAc(b1-2)Man(a1-6)]Man(b1-4)GlcNAc(b1-4)[Fuc(a1-6)]GlcNAc
# How it was run: as §1
# [24] = target: GlcNAc(b1-3)Gal(b1-4)GlcNAc(b1-3)Gal(b1-4)GlcNAc(b1-3)Gal(b1-4)GlcNAc(b1-3)Gal(b1-4)GlcNAc(b1-2)[GlcNAc(b1-3)Gal(b1-4)GlcNAc(b1-3)Gal(b1-4)GlcNAc(b1-3)Gal(b1-4)GlcNAc(b1-3)Gal(b1-4)GlcNAc(b1-6)]Man(a1-6)[GlcNAc(b1-3)Gal(b1-4)GlcNAc(b1-3)Gal(b1-4)GlcNAc(b1-3)Gal(b1-4)GlcNAc(b1-3)Gal(b1-4)GlcNAc(b1-2)Man(a1-3)]Man(b1-4)GlcNAc(b1-4)[Fuc(a1-6)]GlcNAc
# How it was run: as §1
# [25] = target: GlcNAc(b1-3)Gal(b1-4)GlcNAc(b1-3)Gal(b1-4)GlcNAc(b1-3)GalNAc
# How it was run: as §1
# [26] = target: GlcNAc(b1-3)Gal(b1-4)GlcNAc(b1-3)GalNAc
# How it was run: as §1
# [27] = target: GlcNAc(b1-3)Gal(b1-4)GlcNAc(b1-3)[GlcNAc(b1-3)Gal(b1-4)GlcNAc(b1-3)]GalNAc
# How it was run: as §1
# [28] = target: GlcNAc(b1-3)Gal(b1-4)GlcNAc(b1-6)[Gal(b1-3)]GalNAc
# How it was run: as §1
# [29] = target: GlcNAc(b1-3)Gal(b1-4)GlcNAc(b1-6)[GlcNAc(b1-3)Gal(b1-3)]GalNAc
# How it was run: as §1
# [30] = target: GlcNAc(b1-3)Gal(b1-4)GlcNAc(b1-6)[GlcNAc(b1-3)]Gal(b1-4)GlcNAc
# How it was run: as §1
# [31] = target: GlcNAc(b1-3)GalNAc
# How it was run: as §1
# [32] = target: GlcNAc(b1-3)Man
# How it was run: as §1
# [33] = target: GlcNAc(b1-3)[GlcNAc(b1-4)][GlcNAc(b1-6)]GlcNAc
# How it was run: as §1
# [34] = target: GlcNAc(b1-3)[GlcNAc(b1-6)]Gal(b1-4)GlcNAc
# How it was run: as §1
# [35] = target: GlcNAc(b1-3)[GlcNAc(b1-6)]GalNAc
# How it was run: as §1
# [36] = target: GlcNAc(b1-4)Gal(b1-4)GlcNAc
# How it was run: as §1
# [37] = target: GlcNAc(b1-4)GlcNAc
# How it was run: as §1
# [38] = target: GlcNAc(b1-4)GlcNAc(b1-4)GlcNAc
# How it was run: as §1
binder,measurement,setting,value
B1,glycan array binding signal (z-score),[1],1.87
same,glycan array binding signal (z-score),[2],-0.343
same,glycan array binding signal (z-score),[3],-0.517
same,glycan array binding signal (z-score),[4],-0.332
same,glycan array binding signal (z-score),[5],-0.408
same,glycan array binding signal (z-score),[6],-0.232
same,glycan array binding signal (z-score),[7],-0.256
same,glycan array binding signal (z-score),[8],-0.394
same,glycan array binding signal (z-score),[9],0.076
same,glycan array binding signal (z-score),[10],-0.344
same,glycan array binding signal (z-score),[11],-0.519
same,glycan array binding signal (z-score),[12],-0.123
same,glycan array binding signal (z-score),[13],0.261
same,glycan array binding signal (z-score),[14],-0.704
same,glycan array binding signal (z-score),[15],-0.57
same,glycan array binding signal (z-score),[16],-0.159
same,glycan array binding signal (z-score),[17],-0.39
same,glycan array binding signal (z-score),[18],-0.336
same,glycan array binding signal (z-score),[19],-0.507
same,glycan array binding signal (z-score),[20],-0.419
same,glycan array binding signal (z-score),[21],-0.339
same,glycan array binding signal (z-score),[22],-0.508
same,glycan array binding signal (z-score),[23],-0.321
same,glycan array binding signal (z-score),[24],-0.472
same,glycan array binding signal (z-score),[25],-0.504
same,glycan array binding signal (z-score),[26],-0.29
same,glycan array binding signal (z-score),[27],-0.411
same,glycan array binding signal (z-score),[28],-0.279
same,glycan array binding signal (z-score),[29],-0.573
same,glycan array binding signal (z-score),[30],-0.633
same,glycan array binding signal (z-score),[31],-0.515
same,glycan array binding signal (z-score),[32],-0.12
same,glycan array binding signal (z-score),[33],-0.115
same,glycan array binding signal (z-score),[34],-0.576
same,glycan array binding signal (z-score),[35],-0.05
same,glycan array binding signal (z-score),[36],-0.002
same,glycan array binding signal (z-score),[37],-0.058
same,glycan array binding signal (z-score),[38],-0.36
